This note sets out measurements from publication PMC6919601, “Identification of Plasmodium dipeptidyl aminopeptidase allosteric inhibitors by high throughput screening” (PLoS ONE, 2019).

In all, about 110,000 compounds went through this assay and about 230 (0.21%) showed an effect of 50% or more. The list shows a part of the results.
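Further: 30 min substrate incubation versus DMSO and 10 µM JCP410 controls.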

The target of the assay is DPAP1 (Plasmodium falciparum, UniProt Q8IIJ9). In words: primary screen, percent inhibition; read by cleavage of a fluorogenic dipeptide substrate; higher = more effect of the substance. Details: species or system P. falciparum D10 trophozoite lysates; single well.
Chain of DPAP1 (Q8IIJ9 whole entry, looked up): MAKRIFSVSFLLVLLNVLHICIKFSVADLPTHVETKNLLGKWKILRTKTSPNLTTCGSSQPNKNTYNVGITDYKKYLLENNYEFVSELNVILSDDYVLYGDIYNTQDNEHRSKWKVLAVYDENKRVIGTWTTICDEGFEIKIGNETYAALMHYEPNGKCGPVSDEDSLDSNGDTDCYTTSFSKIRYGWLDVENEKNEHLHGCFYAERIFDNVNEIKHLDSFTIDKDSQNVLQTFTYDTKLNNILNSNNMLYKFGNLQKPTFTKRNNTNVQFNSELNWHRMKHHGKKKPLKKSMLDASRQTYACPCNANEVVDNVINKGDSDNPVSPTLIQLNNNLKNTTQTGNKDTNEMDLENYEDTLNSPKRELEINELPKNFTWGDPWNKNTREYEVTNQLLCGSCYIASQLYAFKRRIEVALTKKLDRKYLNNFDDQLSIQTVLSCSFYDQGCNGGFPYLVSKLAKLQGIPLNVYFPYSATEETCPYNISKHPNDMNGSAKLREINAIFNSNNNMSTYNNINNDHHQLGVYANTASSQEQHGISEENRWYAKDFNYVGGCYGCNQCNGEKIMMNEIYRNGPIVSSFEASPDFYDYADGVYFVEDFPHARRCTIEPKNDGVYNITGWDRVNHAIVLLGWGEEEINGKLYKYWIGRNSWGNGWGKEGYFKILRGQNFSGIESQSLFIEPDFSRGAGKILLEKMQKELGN
`CN(C)CCCN1C(=O)C(O)=C(C(=O)c2ccccc2)C1c1ccccc1` (stereo not shown): the “% Inhibition @ 10 uM” value turned out to be 0.163%.

With `COc1ccccc1C(=O)Nc1ncccc1C`, the “% Inhibition @ 10 uM” value is on record as -0.425%.

Regarding `COc1cccc(C(=O)N2CCN(C(=O)CCC3CCCC3)CC2)c1`, the “% Inhibition @ 10 uM” value is recorded as 0.587%.

As to `CC(C)CCNC(=O)CCc1nnc2n(C)c(=O)c3ccccc3n12`, the “% Inhibition @ 10 uM” value is -2.42%.

Consider `CCOc1ccccc1OCc1nn2c(-c3ccccc3Br)nnc2s1`, for which the “% Inhibition @ 10 uM” value is listed as -0.45%.

As for `CCOc1cc(C=C2C(=O)NC(=O)NC2=O)cc(Cl)c1OCc1ccccc1Cl`, the “% Inhibition @ 10 uM” value is -8.57%.

As for `Cc1cc(-c2ccccc2)nc2cc(C(=O)N3CCN(c4ccccc4)CC3)nn12`, the “% Inhibition @ 10 uM” value is recorded as 6.39%.

For `O=C(O)CCCC(=O)Nc1ccc(NC(=O)c2ccco2)cc1`, the “% Inhibition @ 10 uM” value is -4.76%.

Regarding `CN(C)CCN(C)Cc1cccc2ccccc12`, the “% Inhibition @ 10 uM” value was -1.07%.

Turning to `CCc1ccc(C2CC(=O)N3CN(C4CCCCC4)CSC3=C2C#N)cc1` (stereo not shown), the “% Inhibition @ 10 uM” value came to 64.5%.

Take `CC1=CN2C(=N)/C(=C/c3ccc(SCc4ccco4)o3)C(=O)N=C2S1`: the “% Inhibition @ 10 uM” value was 19.8%.

As for `Oc1ccc(Br)cc1/C=N/c1cccc(Nc2nc(N3CCOCC3)nc(N(c3ccccc3)c3ccccc3)n2)c1`, the “% Inhibition @ 10 uM” value is -1.8%.

As to `Cc1cccc(-c2nc(S(=O)(=O)c3ccc(Cl)cc3)c(N3CCOCC3)o2)c1`, the “% Inhibition @ 10 uM” value is recorded as 3.74%.

Consider `COc1cccc(C(=O)NC(C)c2ccc(C)cc2C)c1` (stereo not shown), for which the “% Inhibition @ 10 uM” value is -4.89%.

Take `CC(C)OCCCNC(=O)C1CCN(c2nn3cc(-c4ccc(F)cc4)nc3s2)CC1`: the “% Inhibition @ 10 uM” value is reported as 0.822%.

Regarding `O=C(Nc1nc2ccccc2[nH]1)c1ccccc1O`, the “% Inhibition @ 10 uM” value is recorded as -5.04%.

Regarding `CCCCc1nnc(NC(=O)Cc2csc(C)n2)s1`, the “% Inhibition @ 10 uM” value is listed as -4.54%.

With `COc1ccc(/C=C/C(=O)NCc2ccc(Cl)cc2)cc1`, the “% Inhibition @ 10 uM” value is recorded as -6.12%.

As to `CC1CCN(c2nc(-c3ccc(F)cc3)cc(C(F)(F)F)n2)CC1`, the “% Inhibition @ 10 uM” value amounted to 4.79%.

For `CC(=O)Nc1ccc(-c2cc(-c3ccccc3)nc(-c3ccccc3)n2)cc1`, the “% Inhibition @ 10 uM” value is recorded as 2.55%.

As for `CCCCCCN1N=C(C)C(C(=O)c2ccc(Cl)cc2)C1=O` (stereo not shown), the “% Inhibition @ 10 uM” value is -3.26%.

Consider `Cc1cc(OCC(=O)Nc2ccc(F)cc2)ccc1Br`, for which the “% Inhibition @ 10 uM” value was -2.78%.

Consider `COc1ccc(CC(=O)Nc2ccc(Br)c(Cl)c2)cc1`, for which the “% Inhibition @ 10 uM” value is on record as -1.17%.

For the molecule `Cn1cccc1CNCCc1c[nH]c2ccccc12`, the “% Inhibition @ 10 uM” value is -1.15%.

On to `CCc1nnc(O)c2cc3sccc3n12`, for which the “% Inhibition @ 10 uM” value was found to be 1.72%.

In the case of `CCN(CC)S(=O)(=O)c1cc(C(=O)NCc2ccccc2)ccc1C`, the “% Inhibition @ 10 uM” value is -1.77%.

Turning to `CN(C)c1ccc(C(=O)CC2(O)C(=O)N(C)c3ccccc32)cc1` (stereo not shown), the “% Inhibition @ 10 uM” value was -5.9%.

In the case of `COc1ccc2c(c1)c(C(C)=O)c(C)n2-c1ccccc1`, the “% Inhibition @ 10 uM” value is -2.42%.

On to `Cc1cc(C(=O)Nc2ccc3ccccc3c2)oc1C`, for which the “% Inhibition @ 10 uM” value worked out at 3.24%.

Take `Cc1ccc(CNC(=O)C2CCCN(S(=O)(=O)c3cccc4nonc34)C2)cc1` (stereo not shown): the “% Inhibition @ 10 uM” value is reported as -0.668%.

Take `O=C(CCn1c(=O)c2cccn2c2cccnc21)NCc1ccc2c(c1)OCO2`: the “% Inhibition @ 10 uM” value amounted to 4.39%.

For `CC(C)(C)c1ccc(S(=O)(=O)c2cc3cc(F)cc(F)c3oc2=O)cc1`, the “% Inhibition @ 10 uM” value is recorded as -4.97%.

As to `CCN(CC)c1nc(Cl)nc(Cl)n1`, the “% Inhibition @ 10 uM” value came out at 2.3%.

`Cn1ncc(Br)c1C(=O)Nc1cnn(Cc2ccc(F)cc2)c1`: the “% Inhibition @ 10 uM” value is 0.214%.

Consider `CCN(CC)CCCNC(=O)c1c(-c2ccccc2)noc1C`, for which the “% Inhibition @ 10 uM” value is given as 3.72%.

As for `COc1ccc(-c2cc(C(F)F)n3ncc(C(=O)NCc4ccc5c(c4)OCO5)c3n2)cc1`, the “% Inhibition @ 10 uM” value is -8.55%.

As for `c1ccc(CN2CCN(C3C4CC5CC(C4)CC3C5)CC2)cc1` (stereo not shown), the “% Inhibition @ 10 uM” value is 2.7%.

Consider `C/C(=N\O)c1cc([N+](=O)[O-])c2ccccc2c1O`, for which the “% Inhibition @ 10 uM” value was found to be 3.16%.

As to `CC1=CSC2=NC(=O)/C(=C/c3cc(C)n(-c4ccccc4C)c3C)C(=N)N12`, the “% Inhibition @ 10 uM” value is reported as 0.565%.

For the molecule `COc1ccc2c(CNCc3ccccc3F)c(C(=O)O)[nH]c2c1`, the “% Inhibition @ 10 uM” value is recorded as -4.5%.

On to `Cc1cc(C)c2nc(N3CCC(C(=O)NCCCN4CCCC4=O)CC3)sc2c1`, for which the “% Inhibition @ 10 uM” value is recorded as 0.137%.

Turning to `Cc1nn(C(C)C(=O)N2CCCC2)c(=O)c2nn(-c3ccccc3)c(C)c12` (stereo not shown), the “% Inhibition @ 10 uM” value is reported as -1.76%.

Turning to `CCOc1cccc2sc(Nc3nc4ccc(C(=O)OC)cc4s3)nc12`, the “% Inhibition @ 10 uM” value was -1.28%.

Take `CN1CCN(Cc2c(NC(=O)c3ccc(F)cc3)sc3c2CCCC3)CC1`: the “% Inhibition @ 10 uM” value is -1.04%.

Turning to `CC(C)CC(C(=O)NCC#N)c1csc(Nc2ccncc2)n1` (stereo not shown), the “% Inhibition @ 10 uM” value was determined as 3.19%.

Take `Cc1ccc(-c2cc(C(=O)NC(C)C)c3ccccc3n2)cc1`: the “% Inhibition @ 10 uM” value is -1.84%.

In the case of `CC(C)Oc1ccc(CSc2nncn2N)cc1`, the “% Inhibition @ 10 uM” value is recorded as 0.484%.

Regarding `COc1cc(-n2cnnn2)ccc1S(=O)(=O)N1CCCCC1`, the “% Inhibition @ 10 uM” value is -2.84%.

For `CCCC1CCc2c(sc(NC(=O)CC(C)C)c2C(N)=O)C1` (stereo not shown), the “% Inhibition @ 10 uM” value is reported as 4.22%.

On to `Cc1cc(NC(=O)CC(c2ccccc2)c2ccccc2)no1`, for which the “% Inhibition @ 10 uM” value is on record as -0.598%.

For `CCc1ccc(/C=C2/C(=N)N3C(=NC2=O)SN=C3S(=O)(=O)C(C)C)cc1`, the “% Inhibition @ 10 uM” value was 5.06%.

As for `CC(=O)N1CCC(NC2CCCCCC2)CC1`, the “% Inhibition @ 10 uM” value was -1.78%.
